This is one part of the list. The list includes weakly bound sequences.

The target in this test is T1, MBP-FoxP3dN (UniProt Q99JB6).
T1 sequence: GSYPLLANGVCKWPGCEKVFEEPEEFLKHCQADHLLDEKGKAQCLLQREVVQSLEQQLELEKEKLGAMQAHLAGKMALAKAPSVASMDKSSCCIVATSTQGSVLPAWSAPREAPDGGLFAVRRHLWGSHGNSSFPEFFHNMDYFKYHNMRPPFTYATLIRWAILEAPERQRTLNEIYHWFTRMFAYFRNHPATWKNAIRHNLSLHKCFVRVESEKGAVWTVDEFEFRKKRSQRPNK
Put plainly: PD-seq (MBP pull-down with sequencing). Conditions: 20 mM Tris-HCl pH 7.5, 100 mM NaCl, 1.5 mM MgCl2, 0.4 uM protein, 0.1 uM dsDNA library, 30 min, room temperature, amylose pull-down; high values mean tight binding; double strand, one strand shown.
As for “GATGATTGTTCTCCCAGCTGATGAATTTTAGCCTTCGAGTAAACAAATTTTCCTAATCTTTCTGTTCAAGCGCCATCTAC”, the binding signal (RPM ratio (pull-down/input)) was 2.35.

For “GATGATTGTTCTCCCAGCTGATGAATTGAGTCGATCGAGTAAACAAATTTTCCTAATCTTTCTGTTCAAGCGCCATCTAC”, the binding signal (RPM ratio (pull-down/input)) was 0.374.

With “GATGATTGTTCTCCCAGCTGATGAATTTAGTAACTCGAGTAAACAAATTTTCCTAATCTTTCTGTTCAAGCGCCATCTAC”, the binding signal (RPM ratio (pull-down/input)) worked out at 1.77. The same measure for “GATGATTGTTCTCCCAGCTGATGAATTTGTACGCTCGAGTAAACAAATTTTCCTAATCTTTCTGTTCAAGCGCCATCTAC”: 2.02; for “GATGATTGTTCTCCCAGCTGATGAATTCCGGCTCTCGAGTAAACAAATTTTCCTAATCTTTCTGTTCAAGCGCCATCTAC”: 0.325; for “GATGATTGTTCTCCCAGCTGATGAATTGGTGCTCTCGAGTAAACAAATTTTCCTAATCTTTCTGTTCAAGCGCCATCTAC”: 0.609.

Turning to “GATGATTGTTCTCCCAGCTGATGAATTATTATGCTCGAGTAAACAAATTTTCCTAATCTTTCTGTTCAAGCGCCATCTAC”, the binding signal (RPM ratio (pull-down/input)) came to 0.959. Take “GATGATTGTTCTCCCAGCTGATGAATTGGCAACTTCGAGTAAACAAATTTTCCTAATCTTTCTGTTCAAGCGCCATCTAC”: the binding signal (RPM ratio (pull-down/input)) stood at 1.69. Next, “GATGATTGTTCTCCCAGCTGATGAATTTCCGCTCTCGAGTAAACAAATTTTCCTAATCTTTCTGTTCAAGCGCCATCTAC”: 0.388; “GATGATTGTTCTCCCAGCTGATGAATTTTGAGGATCGAGTAAACAAATTTTCCTAATCTTTCTGTTCAAGCGCCATCTAC”: 0.327. For the sequence “GATGATTGTTCTCCCAGCTGATGAATTGGTGTTGTCGAGTAAACAAATTTTCCTAATCTTTCTGTTCAAGCGCCATCTAC”, the binding signal (RPM ratio (pull-down/input)) is 3.18. “GATGATTGTTCTCCCAGCTGATGAATTAATGGCTTCGAGTAAACAAATTTTCCTAATCTTTCTGTTCAAGCGCCATCTAC”: the binding signal (RPM ratio (pull-down/input)) worked out at 0.514. The same measure for “GATGATTGTTCTCCCAGCTGATGAATTTGTAGCTTCGAGTAAACAAATTTTCCTAATCTTTCTGTTCAAGCGCCATCTAC”: 4.01; for “GATGATTGTTCTCCCAGCTGATGAATTCAGGCTTTCGAGTAAACAAATTTTCCTAATCTTTCTGTTCAAGCGCCATCTAC”: 0.709; for “GATGATTGTTCTCCCAGCTGATGAATTCGCCGCCTCGAGTAAACAAATTTTCCTAATCTTTCTGTTCAAGCGCCATCTAC”: 0.621.

For the sequence “GATGATTGTTCTCCCAGCTGATGAATTAGAATGTTCGAGTAAACAAATTTTCCTAATCTTTCTGTTCAAGCGCCATCTAC”, the binding signal (RPM ratio (pull-down/input)) is 0.671.

In the case of “GATGATTGTTCTCCCAGCTGATGAATTGGACACGTCGAGTAAACAAATTTTCCTAATCTTTCTGTTCAAGCGCCATCTAC”, the binding signal (RPM ratio (pull-down/input)) was 0.371. With “GATGATTGTTCTCCCAGCTGATGAATTGAACTGTTCGAGTAAACAAATTTTCCTAATCTTTCTGTTCAAGCGCCATCTAC”, the binding signal (RPM ratio (pull-down/input)) worked out at 0.372.

As for “GATGATTGTTCTCCCAGCTGATGAATTGTGAATATCGAGTAAACAAATTTTCCTAATCTTTCTGTTCAAGCGCCATCTAC”, the binding signal (RPM ratio (pull-down/input)) came to 0.91.

Turning to “GATGATTGTTCTCCCAGCTGATGAATTCACTTGCTCGAGTAAACAAATTTTCCTAATCTTTCTGTTCAAGCGCCATCTAC”, the binding signal (RPM ratio (pull-down/input)) was 0.587. Next, “GATGATTGTTCTCCCAGCTGATGAATTCTGCGACTCGAGTAAACAAATTTTCCTAATCTTTCTGTTCAAGCGCCATCTAC”: 2.57; “GATGATTGTTCTCCCAGCTGATGAATTGTAAACGTCGAGTAAACAAATTTTCCTAATCTTTCTGTTCAAGCGCCATCTAC”: 0.874. Take “GATGATTGTTCTCCCAGCTGATGAATTGCTTATATCGAGTAAACAAATTTTCCTAATCTTTCTGTTCAAGCGCCATCTAC”: the binding signal (RPM ratio (pull-down/input)) was 1.61.

As to “GATGATTGTTCTCCCAGCTGATGAATTCGAACTATCGAGTAAACAAATTTTCCTAATCTTTCTGTTCAAGCGCCATCTAC”, the binding signal (RPM ratio (pull-down/input)) was found to be 0.371. The same measure for “GATGATTGTTCTCCCAGCTGATGAATTACTACTCTCGAGTAAACAAATTTTCCTAATCTTTCTGTTCAAGCGCCATCTAC”: 0.421; for “GATGATTGTTCTCCCAGCTGATGAATTTTCGCAGTCGAGTAAACAAATTTTCCTAATCTTTCTGTTCAAGCGCCATCTAC”: 0.491; for “GATGATTGTTCTCCCAGCTGATGAATTACTCATATCGAGTAAACAAATTTTCCTAATCTTTCTGTTCAAGCGCCATCTAC”: 0.57. Next, “GATGATTGTTCTCCCAGCTGATGAATTGACTATCTCGAGTAAACAAATTTTCCTAATCTTTCTGTTCAAGCGCCATCTAC”: 0.408; “GATGATTGTTCTCCCAGCTGATGAATTAAAGTTTTCGAGTAAACAAATTTTCCTAATCTTTCTGTTCAAGCGCCATCTAC”: 0.585. Next, “GATGATTGTTCTCCCAGCTGATGAATTTTCTCATTCGAGTAAACAAATTTTCCTAATCTTTCTGTTCAAGCGCCATCTAC”: 0.34; “GATGATTGTTCTCCCAGCTGATGAATTCATACTCTCGAGTAAACAAATTTTCCTAATCTTTCTGTTCAAGCGCCATCTAC”: 0.47; “GATGATTGTTCTCCCAGCTGATGAATTTGTGATATCGAGTAAACAAATTTTCCTAATCTTTCTGTTCAAGCGCCATCTAC”: 2.2.
